# In the supplement of paper PMC8728848:
# Some of the results follow.
# B1: CPA (Cicer arietinum) (protein)
# chain: MAFSYLNLVLVTLTTLFFLQTTKVKSQKSVSFHITNFTISRPSITLQGTAEFLPNVLLLNDIEHPVFVVGRALYSKPITLWNNKTGKVASFVTSFTFDVQDLKKTVPGHGLVFFLAPSGSEIPFSSDGGNLGVVDGKNAFNRFVGVEFDNFVNSWDPKYSHVGINVNSLISTKTVKWNRVSGELVKVSIVYDSVSTTLTVIVTYKNGQISILSQLVDLKAVLPDTVNIGFSASTTLVSPRQLHNIHSWSFTSTFET
# Experiments:
# Experiment in all cases: glycan array binding signal (z-score within array); higher = stronger binding
# Conditions in all cases: glycan notation: IUPAC condensed, linker removed
# [1] = biological target: Neu5Ac(a2-3)Gal(b1-4)GlcNAc(b1-2)[Neu5Ac(a2-3)Gal(b1-4)GlcNAc(b1-6)]Man(a1-6)[Neu5Ac(a2-3)Gal(b1-4)GlcNAc(b1-2)Man(a1-3)]Man(b1-4)GlcNAc(b1-4)GlcNAc
# Method in brief: (§1)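 Arrays were curated from the Consortium for Functional Glycomics database, 3228 in total, and kept only where the protein sequence was available. Binding is expressed as a within-array Z-score. This score was averaged across arrays of the same protein sequence at different concentrations or buffers and across linkers, and negative values can be read as non-binding.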
# [2] = biological target: Neu5Ac(a2-3)Gal(b1-4)GlcNAc(b1-2)[Neu5Ac(a2-3)Gal(b1-4)GlcNAc(b1-6)]Man(a1-6)[Neu5Ac(a2-3)Gal(b1-4)GlcNAc(b1-2)Man(a1-3)][GlcNAc(b1-4)]Man(b1-4)GlcNAc(b1-4)GlcNAc
# Method in brief: as §1
# [3] = biological target: Neu5Ac(a2-3)Gal(b1-4)GlcNAc(b1-3)Gal
# Method in brief: as §1
# [4] = biological target: Neu5Ac(a2-3)Gal(b1-4)GlcNAc(b1-3)Gal(b1-3)GlcNAc
# Method in brief: as §1
# [5] = biological target: Neu5Ac(a2-3)Gal(b1-4)GlcNAc(b1-3)Gal(b1-4)GlcNAc
# Method in brief: as §1
# [6] = biological target: Neu5Ac(a2-3)Gal(b1-4)GlcNAc(b1-3)Gal(b1-4)GlcNAc(b1-2)Man(a1-3)[Neu5Ac(a2-3)Gal(b1-4)GlcNAc(b1-3)Gal(b1-4)GlcNAc(b1-2)Man(a1-6)]Man(b1-4)GlcNAc(b1-4)GlcNAc
# Method in brief: as §1
# [7] = biological target: Neu5Ac(a2-3)Gal(b1-4)GlcNAc(b1-3)Gal(b1-4)GlcNAc(b1-3)Gal(b1-4)GlcNAc
# Method in brief: as §1
# [8] = biological target: Neu5Ac(a2-3)Gal(b1-4)GlcNAc(b1-3)Gal(b1-4)GlcNAc(b1-3)Gal(b1-4)GlcNAc(b1-2)Man(a1-3)[Neu5Ac(a2-3)Gal(b1-4)GlcNAc(b1-3)Gal(b1-4)GlcNAc(b1-3)Gal(b1-4)GlcNAc(b1-2)Man(a1-6)]GalNAc
# Method in brief: as §1
# [9] = biological target: Neu5Ac(a2-3)Gal(b1-4)GlcNAc(b1-3)Gal(b1-4)GlcNAc(b1-3)GalNAc
# Method in brief: as §1
# [10] = biological target: Neu5Ac(a2-3)Gal(b1-4)GlcNAc(b1-3)Gal(b1-4)GlcNAc(b1-3)[Neu5Ac(a2-3)Gal(b1-4)GlcNAc(b1-3)Gal(b1-4)GlcNAc(b1-6)]GalNAc
# Method in brief: as §1
# [11] = biological target: Neu5Ac(a2-3)Gal(b1-4)GlcNAc(b1-3)Gal(b1-4)GlcNAc(b1-6)[Gal(b1-3)]GalNAc
# Method in brief: as §1
# [12] = biological target: Neu5Ac(a2-3)Gal(b1-4)GlcNAc(b1-3)Gal(b1-4)[Fuc(a1-3)]GlcNAc
# Method in brief: as §1
# [13] = biological target: Neu5Ac(a2-3)Gal(b1-4)GlcNAc(b1-3)GalNAc
# Method in brief: as §1
# [14] = biological target: Neu5Ac(a2-3)Gal(b1-4)GlcNAc(b1-3)[Neu5Ac(a2-3)Gal(b1-4)GlcNAc(b1-6)]GalNAc
# Method in brief: as §1
# [15] = biological target: Neu5Ac(a2-3)Gal(b1-4)GlcNAc(b1-6)GalNAc
# Method in brief: as §1
# [16] = biological target: Neu5Ac(a2-3)Gal(b1-4)GlcNAc(b1-6)[Gal(b1-3)]GalNAc
# Method in brief: as §1
# [17] = biological target: Neu5Ac(a2-3)Gal(b1-4)GlcNAc(b1-6)[Neu5Ac(a2-3)Gal(b1-3)]GalNAc
# Method in brief: as §1
# [18] = biological target: Neu5Ac(a2-3)Gal(b1-4)GlcNAc6S
# Method in brief: as §1
# [19] = biological target: Neu5Ac(a2-3)Gal(b1-4)[Fuc(a1-3)]GlcNAc
# Method in brief: as §1
# [20] = biological target: Neu5Ac(a2-3)Gal(b1-4)[Fuc(a1-3)]GlcNAc(b1-2)Man
# Method in brief: as §1
# [21] = biological target: Neu5Ac(a2-3)Gal(b1-4)[Fuc(a1-3)]GlcNAc(b1-3)Gal
# Method in brief: as §1
# [22] = biological target: Neu5Ac(a2-3)Gal(b1-4)[Fuc(a1-3)]GlcNAc(b1-3)Gal(b1-4)GlcNAc
# Method in brief: as §1
# [23] = biological target: Neu5Ac(a2-3)Gal(b1-4)[Fuc(a1-3)]GlcNAc(b1-3)Gal(b1-4)[Fuc(a1-3)]GlcNAc(b1-3)Gal(b1-4)[Fuc(a1-3)]GlcNAc
# Method in brief: as §1
# [24] = biological target: Neu5Ac(a2-3)Gal(b1-4)[Fuc(a1-3)]GlcNAc(b1-3)GalNAc
# Method in brief: as §1
# [25] = biological target: Neu5Ac(a2-3)Gal(b1-4)[Fuc(a1-3)]GlcNAc(b1-6)[Gal(b1-3)]GalNAc
# Method in brief: as §1
# [26] = biological target: Neu5Ac(a2-3)Gal(b1-4)[Fuc(a1-3)]GlcNAc(b1-6)[Neu5Ac(a2-3)Gal(b1-3)]GalNAc
# Method in brief: as §1
# [27] = biological target: Neu5Ac(a2-3)Gal(b1-4)[Fuc(a1-3)]GlcNAc6S
# Method in brief: as §1
# [28] = biological target: Neu5Ac(a2-3)Gal6S(b1-4)GlcNAc
# Method in brief: as §1
# [29] = biological target: Neu5Ac(a2-3)Gal6S(b1-4)[Fuc(a1-3)]GlcNAc
# Method in brief: as §1
# Neu5Ac(a2-3)GalNAc = biological target: Neu5Ac(a2-3)GalNAc
# Method in brief: as §1
# [30] = biological target: Neu5Ac(a2-3)GalNAc(b1-4)GlcNAc
# Method in brief: as §1
# [31] = biological target: Neu5Ac(a2-3)[GalNAc(b1-4)]Gal(b1-4)Glc
# Method in brief: as §1
# [32] = biological target: Neu5Ac(a2-3)[GalNAc(b1-4)]Gal(b1-4)GlcNAc
# Method in brief: as §1
# [33] = biological target: Neu5Ac(a2-3)[GalNAc(b1-4)]Gal(b1-4)GlcNAc(b1-3)GalNAc
# Method in brief: as §1
# [34] = biological target: Neu5Ac(a2-3)[Neu5Ac(a2-6)]GalNAc
# Method in brief: as §1
# Neu5Ac(a2-6)Gal = biological target: Neu5Ac(a2-6)Gal
# Method in brief: as §1
# [35] = biological target: Neu5Ac(a2-6)Gal(b1-3)GlcNAc(b1-3)[Gal(b1-4)GlcNAc(b1-6)]Gal(b1-4)Glc
# Method in brief: as §1
binder,measurement,setting,value
B1,glycan array binding signal (z-score),[1],0.425
same,glycan array binding signal (z-score),[2],-0.636
same,glycan array binding signal (z-score),[3],-0.66
same,glycan array binding signal (z-score),[4],-0.633
same,glycan array binding signal (z-score),[5],-0.763
same,glycan array binding signal (z-score),[6],2.85
same,glycan array binding signal (z-score),[7],-0.587
same,glycan array binding signal (z-score),[8],6.81
same,glycan array binding signal (z-score),[9],-0.304
same,glycan array binding signal (z-score),[10],1.54
same,glycan array binding signal (z-score),[11],-0.027
same,glycan array binding signal (z-score),[12],-0.515
same,glycan array binding signal (z-score),[13],-0.22
same,glycan array binding signal (z-score),[14],-0.354
same,glycan array binding signal (z-score),[15],0.427
same,glycan array binding signal (z-score),[16],-0.566
same,glycan array binding signal (z-score),[17],-0.626
same,glycan array binding signal (z-score),[18],-0.638
same,glycan array binding signal (z-score),[19],-0.538
same,glycan array binding signal (z-score),[20],-0.288
same,glycan array binding signal (z-score),[21],-0.743
same,glycan array binding signal (z-score),[22],-0.418
same,glycan array binding signal (z-score),[23],-0.281
same,glycan array binding signal (z-score),[24],-0.322
same,glycan array binding signal (z-score),[25],-0.005
same,glycan array binding signal (z-score),[26],-0.204
same,glycan array binding signal (z-score),[27],-0.752
same,glycan array binding signal (z-score),[28],-0.562
same,glycan array binding signal (z-score),[29],-0.684
same,glycan array binding signal (z-score),Neu5Ac(a2-3)GalNAc,-0.53
same,glycan array binding signal (z-score),[30],-0.537
same,glycan array binding signal (z-score),[31],-0.34
same,glycan array binding signal (z-score),[32],-0.301
same,glycan array binding signal (z-score),[33],2.36
same,glycan array binding signal (z-score),[34],-0.304
same,glycan array binding signal (z-score),Neu5Ac(a2-6)Gal,-0.276
same,glycan array binding signal (z-score),[35],0.131
